{"source": "PubChem BioAssay AID224", "about": "(DTP/NCI, 2004)", "test_system": "P335 leukemia ip, BDF1 mice, survival T/C %", "assay": "NCI In Vivo Anticancer Drug Screen. Data for tumor model P335 Leukemia (intraperitoneal) in B6D2F1 (BDF1) mice", "details": "endpoint: mean survival time, schedule: Q01DX Z (ip), higher = longer survival", "method": "The antitumor activity of compounds was measured in mice bearing transplantable tumors. Survival or tumor size were measured and the results are expressed as the measurement made in the treated group (T) divided by the measurement made in the vehicle treated control group (C). The tumor model used in this assay is P335 Leukemia (intraperitoneal) in B6D2F1 (BDF1) mice", "note": "Toxic doses and inconclusive results are not listed. Not every entry of the source has a single result; some have several. The list is limited to them. An entry can have further records. Results that share an entry repeat one measurement in other runs, samples, wells, individuals or studies.", "data": [{"smiles": "O=P1(N(CCCl)CCCl)NCCCO1", "note": "(centres undefined)", "values": [{"measurement": "T/C", "setting": "dose: 100.0 mg/kg/injection, vehicle: saline", "result": "97 % of control and 182 % of control"}]}, {"smiles": "Nc1nc(N)c2nc(CNc3ccc(C(=O)NC(CCC(=O)O)C(=O)O)cc3)cnc2n1", "note": "(centres undefined)", "values": [{"measurement": "T/C", "setting": "dose: 125.0 micrograms/kg/injection, vehicle: alkali diluted with saline", "result": "100 % of control and 164 % of control"}]}, {"smiles": "CSc1ncnc2c1ncn2C1OC(CO)C(O)C1O", "note": "(centres undefined)", "values": [{"measurement": "T/C", "setting": "dose: 12.5 mg/kg/injection, vehicle: carboxymethylcellulose (CMC)", "result": "108 % of control and 175 % of control"}]}, {"smiles": "CC[C@]1(O)C[C@H]2CN(CCc3c([nH]c4ccccc34)[C@@](C(=O)OC)(c3cc4c(cc3OC)N(C=O)[C@H]3[C@@](O)(C(=O)OC)[C@H](OC(C)=O)[C@]5(CC)C=CCN6CC[C@]43[C@@H]65)C2)C1", "values": [{"measurement": "T/C", "setting": "dose: 0.25 mg/kg/injection, vehicle: water", "result": "91 % of control, 100 % of control, 294 % of control"}]}]}
